# Data reported in article PMC4336329 (PLoS ONE, 2015).
# Screen size: about 310,000 compounds; about 14,000 (4.5%) showed an effect of 50% or more. The effect is printed as a negative number. The list shows a part of the results.
# Biological target: human ether-à-go-go-related gene (hERG) potassium channel (human, UniProt Q12809)
# Assay: primary screen, population patch clamp on CHO cells stably expressing hERG
# 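Note: peak tail current of the secondary pulse compared with the same well before compound.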
# human ether-à-go-go-related gene (hERG) potassium channel, sequence (Q12809 whole entry, looked up): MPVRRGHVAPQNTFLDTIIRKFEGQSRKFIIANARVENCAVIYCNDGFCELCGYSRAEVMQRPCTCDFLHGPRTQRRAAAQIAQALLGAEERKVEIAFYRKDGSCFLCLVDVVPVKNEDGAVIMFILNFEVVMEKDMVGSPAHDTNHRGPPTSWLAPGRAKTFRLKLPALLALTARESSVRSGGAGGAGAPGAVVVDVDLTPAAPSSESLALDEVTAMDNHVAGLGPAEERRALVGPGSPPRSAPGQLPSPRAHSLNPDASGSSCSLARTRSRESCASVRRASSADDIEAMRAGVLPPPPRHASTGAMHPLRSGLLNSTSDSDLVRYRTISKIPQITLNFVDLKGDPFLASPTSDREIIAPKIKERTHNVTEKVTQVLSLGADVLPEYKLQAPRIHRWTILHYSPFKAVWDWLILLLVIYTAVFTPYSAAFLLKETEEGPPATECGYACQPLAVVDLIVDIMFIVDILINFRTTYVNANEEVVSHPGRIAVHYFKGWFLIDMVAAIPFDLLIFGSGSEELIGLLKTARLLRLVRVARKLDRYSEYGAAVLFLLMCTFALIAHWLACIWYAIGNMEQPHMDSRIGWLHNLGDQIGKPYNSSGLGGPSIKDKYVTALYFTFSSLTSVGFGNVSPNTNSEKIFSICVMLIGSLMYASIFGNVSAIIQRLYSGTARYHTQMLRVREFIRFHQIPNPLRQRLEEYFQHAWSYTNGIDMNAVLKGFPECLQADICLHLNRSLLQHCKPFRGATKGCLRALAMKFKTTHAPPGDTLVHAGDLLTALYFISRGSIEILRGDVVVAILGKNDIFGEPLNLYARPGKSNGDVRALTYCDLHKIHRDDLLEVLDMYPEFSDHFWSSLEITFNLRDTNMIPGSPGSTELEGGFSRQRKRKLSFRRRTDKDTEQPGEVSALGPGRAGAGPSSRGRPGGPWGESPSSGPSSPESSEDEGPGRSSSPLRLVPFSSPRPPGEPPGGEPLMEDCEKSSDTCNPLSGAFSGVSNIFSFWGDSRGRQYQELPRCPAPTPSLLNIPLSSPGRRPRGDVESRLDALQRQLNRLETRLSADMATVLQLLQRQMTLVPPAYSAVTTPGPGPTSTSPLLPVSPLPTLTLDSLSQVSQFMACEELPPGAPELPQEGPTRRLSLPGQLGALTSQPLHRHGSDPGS
row,SMILES,"hERG current change (%, negative = inhibition) at 10uM"
1,CCOC(=O)c1ccc([N+](=O)[O-])c(CS(=O)(=O)c2ccc(Cl)cc2)c1,-37.9%
2,Cc1csc(NC(=O)CSCC(=O)Nc2ccccc2)n1,4.57%
3,Nc1nc2nonc2nc1N1CCCCC1,-0.289%
4,Cc1cccc(NC(=O)c2cccc(Cn3cc(Br)c([N+](=O)[O-])n3)c2)c1C,13.7%
5,COc1ccc(OCc2cc(C(=O)NC(C)c3csc(C)n3)no2)c(Cl)c1 (centres unmarked),9.12%
6,CN1C(C(=O)Nc2ccccn2)=C(O)c2sc(Cl)cc2S1(=O)=O,7.69%
7,CN1CCc2c(sc(/N=C/c3c[nH]c4ccccc34)c2C(N)=O)C1,11.2%
8,COc1ccc(S(=O)(=O)N2CCN(Cc3cc(OC)c(OC)cc3OC)CC2)cc1.O=C(O)C(=O)O,-11.5%
9,O=C(NC1CCCCC1)c1cc([N+](=O)[O-])ccc1N1CCCCC1,-17%
10,CC(OC(=O)c1ccc2ncsc2c1)C(=O)NC1CCCCC1C (centres unmarked),3.22%
11,Cc1nc(SCC(=O)NCc2ccccc2)c2c(=O)n(C)c(=O)n(C)c2n1,-14%
12,COc1ccc(-c2noc(-c3ccc4c(c3)OCO4)n2)cc1,-3.35%
13,CCCOc1ccc(C(=O)c2ccccc2C(=O)OC2CCOC2=O)cc1OCCC (centres unmarked),-20.9%
14,O=C(N/N=C/c1ccccc1OC(=O)c1ccc2c(c1)OCO2)c1ccccc1,8.48%
15,Cc1ccc(CNC(=O)c2ccc(N3CCC4(CC3)CC(c3ccccc3)=NO4)c(NC(=O)c3ccc(Cl)c([N+](=O)[O-])c3)c2)cc1,0.207%
16,COc1ccccc1C(=O)NNC(=S)NC(=O)c1sc2ccccc2c1Cl,6.92%
17,Cc1cc2c(cc1C)CSC(c1ccccc1OC(=O)C(C)(C)C)SC2,-9.71%
18,O=C1c2cccc3cccc(c23)C(=O)N1CCc1ccccc1,14.2%
19,Cc1cc(C)n2nc(SCc3ncc(-c4ccccc4)o3)nc2n1,-32.8%
20,CCNc1nc(NC(C)C)nc(NC(C)(C)C)n1,6.04%
21,Brc1ccc(Oc2nsnc2N2CCOCC2)cc1,-46.4%
22,COc1ccc(C2C(C(=O)NCc3ccccc3)=C(C)Nc3ncnn32)cc1OC (centres unmarked),8.75%

row,SMILES,"hERG current change (%, negative = inhibition) at 10uM"
1,C/C(=C/c1ccccc1)C(=O)N1CC(C)OC(C)C1 (centres unmarked),11.7%
2,N#CC1=C(N)Oc2c(oc(CO)cc2=O)C1c1cccs1 (centres unmarked),18.2%
3,C=C1CCC[C@]2(C)C[C@H]3OC(=O)C(CNC(C)CCCC(C)C)[C@H]3CC12 (some centres unmarked),-10.5%
4,C=CCOc1ccc(CNn2cn[nH]c2=S)cc1OC,5.81%
5,Cc1ccc(NC(=O)COCC(=O)Nc2ccc(F)cc2)cc1,1.03%
6,O=C(Nc1c[nH]c(=O)[nH]c1=O)c1ccccc1Br,16.4%
7,CC(=O)Nc1ccc(N=NC2C(=O)N(C(N)=S)N=C2C)cc1 (centres unmarked),14.9%
8,O=C(c1ccccc1NS(=O)(=O)c1cccc([N+](=O)[O-])c1)N1CCCC1,5.18%
9,COc1ccccc1CNS(=O)(=O)c1cc2c3c(c1)CCN3C(=O)CC2,-4.02%
10,O=C1CCCN1Cc1ccccc1,8.14%
11,Nc1nonc1-n1nnc(C(=O)N/N=C/c2ccc(O)cc2)c1CN1CCCCCC1,11.5%
12,CC(C)(C)Nc1nc(NN)nc(NC(C)(C)C)n1,11.8%
13,Cc1cc(C(=O)Nn2c(C)nc3ccccc3c2=O)ccc1[N+](=O)[O-],3.82%
14,COc1cc(C(=O)NCC(c2ccco2)N2CCCC2)ccc1OCc1c(C)noc1C (centres unmarked),-21.1%
15,Cc1ccc(CN(C(=O)c2ccc(Cl)c([N+](=O)[O-])c2)C2CCS(=O)(=O)C2)o1 (centres unmarked),-22%
16,COC(=O)/C(=C1/Oc2cc(C)oc(=O)c2S1)C(F)(F)F,13.4%
17,CCN(CC)c1ccc(CNC(=O)C/C(C)=N/NC(=O)COc2ccc(C)cc2Br)cc1,-23.6%
18,Cc1cc(C(=O)COC(=O)c2ccc3c(c2)NC(=O)CS3)c(C)n1CCc1ccc(Cl)cc1,25.7%
19,COc1ccc(-c2csc(NC(=O)c3ccccc3OC)c2C(=O)O)cc1OC,20.6%
20,CCOC(=O)c1c(S(=O)(=O)NCC(=O)Nc2ccc(OC)cc2)c(C)n(C)c1C,10.9%
21,CN(C)c1ccc(NC(=O)CC(NCc2ccccn2)C(=O)O)cc1 (centres unmarked),15.7%
22,CNC(=S)Nc1cccc(C(C)=O)c1,10.5%

row,SMILES,"hERG current change (%, negative = inhibition) at 10uM"
1,CC(C)N(c1ccccc1)c1ccc(NC(=O)CCl)cc1,-1.05%
2,COc1cccc(CN2CCN(CCCc3ccccc3)C(CCO)C2)c1OC (centres unmarked),-48.6%
3,CSc1ccc(CN2CCCCCC2)cc1,-35%
4,CCOc1cccc(C(=O)Nc2cccc(-c3nnc(-c4ccccc4)o3)c2)c1,-16.4%
5,COc1ccc(OCC(=O)NC(=O)c2ccccc2OC)c([N+](=O)[O-])c1,-14.1%
6,CC(C)(C)Cc1nnc(NC(=O)CN2C(=O)c3ccccc3C2=O)s1,14.8%
7,Cc1sc2nc(CSc3ncn[nH]3)[nH]c(=O)c2c1C,33.7%
8,C=CCN(CC=C)C(=O)c1cccc(S(=O)(=O)N2c3ccccc3CC2C)c1 (centres unmarked),-27.9%
9,COc1ccc(Cn2nnnc2C(c2cc3cc(C)cc(C)c3[nH]c2=O)N2CCOCC2)cc1 (centres unmarked),-58.2%
10,COCCN1C(=O)c2ccc(C(=O)NCc3cccnc3)cc2C1=O,5.99%
11,CC(=O)c1c(C)[nH]c(C(=O)NCCCN2CCCC2)c1C,1.85%
12,CCOC(=O)C1CCCCN1Cc1cccc(Oc2ccccc2)c1 (centres unmarked),-3.31%
13,N#Cc1c(NC(=O)CSc2nc(N)cc(=O)[nH]2)sc2c1CCCC2,31.5%
14,O=C(Nc1cc(Cl)ccc1-n1cncn1)c1cccc(S(=O)(=O)N2CCOCC2)c1,-61.9%
15,COc1ccc(C(=O)NC(=S)Nc2nnn(C)n2)cc1,18.6%
16,Cc1ccc(S(=O)(=O)N2CCOC2CNC(=O)C(=O)NCc2ccc3c(c2)OCO3)cc1 (centres unmarked),-4.16%
17,Cc1noc(C)c1CSCC(=O)Nc1nnc(CC(C)C)s1,-21.3%
18,COc1ccccc1NC(=O)N1CCCC1C(=O)Nc1ccc(NC(C)=O)cc1 (centres unmarked),12.9%
19,CCOC(=O)c1c(C)[nH]c(C(=O)COC(=O)/C=C/c2ccc(OCC#N)c(OC)c2)c1C,9.14%
20,Cc1cc(C)cc(NC(=S)NC(=O)C2CC2)c1,3.72%
21,Cc1c(NC(C)c2cc(Cl)ccc2O)c(=O)n(-c2ccccc2)n1C (centres unmarked),-7.85%
22,Cc1ccc(OCC(=O)c2c(N)n(C)c(=O)n(C)c2=O)c([N+](=O)[O-])n1,-8.05%

row,SMILES,"hERG current change (%, negative = inhibition) at 10uM"
1,COc1cc(N=Nc2ccccc2C(=O)O)ccc1O,-3.28%
2,O=C(NC1CCCC1)c1cccc2c1C(=O)c1ccc(N3CCCCC3)cc1S2(=O)=O,-18.1%
3,CC(=O)Nc1ccc(S(=O)(=O)NCCC(=O)Nc2cccc(Cl)c2)cc1,8.56%
4,CCc1cc2c(=O)nc3n(c2s1)Cc1ccccc1/C3=C(/O)c1cccc([N+](=O)[O-])c1,-4.6%
5,O=C1CC(=O)C(n2cncn2)C(c2c(F)cccc2Cl)C1 (centres unmarked),-1.83%
6,CSc1nc(N(C)NC(=O)c2ccc(F)cc2)c2ccccc2n1,3.42%
7,COCCCC1CCN(C(=O)C2CCC(=O)N(CCc3cccc(F)c3)C2)CC1 (centres unmarked),-9.75%
8,COc1ccccc1-c1nnc(SCC(=O)NCc2c(C)c(Cl)cc(C(C)C)c2O)o1,7.46%
9,COc1ccc(NC(=O)c2cccc(S(=O)(=O)N3CCN(c4ccccc4)CC3)c2)c(OC)c1,-20.8%
10,Cc1cccc(C)c1OCC(=O)NNC(=O)CNC(=O)c1ccc(OC(F)F)cc1,-23.7%
11,CCC(=O)N(CCc1ccccc1)Cc1cc2cccc(C)c2[nH]c1=O,-14.4%
12,CCN(CC)c1ccc(/C=N\NC(=O)c2cccc3cc[nH]c23)cc1,16.7%
13,C[C@]12CS(=O)(=O)C[C@H]1SC(=S)N2c1ccccc1,-0.916%
14,Cc1ccc(SCC(=O)OCC(=O)NC(C)c2ccc(Br)cc2)cc1 (centres unmarked),-5.53%
15,CC1CN(C2=NC(=O)/C(=C3/C(=O)N(Cc4ccc(F)cc4)c4ccccc43)S2)CC(C)O1 (centres unmarked),17.2%
16,CC1(C)C(c2cccs2)=NC(c2ccccc2)N1O (centres unmarked),8.83%
17,O=C(NC(=S)NC1CCS(=O)(=O)C1)c1ccccc1 (centres unmarked),14.6%
18,CC1CCN(C(=O)c2cc(S(=O)(=O)N3CCCCC3)c[nH]2)CC1,19.9%
19,COC(=O)C1=C(c2cccc(OCc3ccccc3)c2)C[C@@H]2CC[C@H]1N2C(=O)NCCN1CCOCC1,-9.46%
20,O=C(Nc1ccc(S(=O)(=O)Nc2cnc3ccccc3n2)cc1)c1cc(F)c(F)cc1Cl,-5.68%
